The source gives no read counts; variants with many changes may rest on few reads.
B1: LINE1-mini (parent)
chain: GGCAGAGCUCAACACAGCGUGGCAAAGUGGCUGUGGCUAGACUGCC

Variants of: B1
Experiment: self-cleavage, relative activity (ratio to wild type); higher = more cleavage; in vitro, sequencing; the parent is a self-cleaving ribozyme

Variant	self-cleavage
U9A U28G C42U	0.04
C8U G40U U43C	0.1
U9C U20C G27C	0.03
U9A A14G C46U	0.27
U9C C18G G29U G30U C42G	0.02
U9G A16C A24G G35A A39G	0.03
U9G A14U U28A	0.03
U9A G21U U38G	0.17
U9A G29U A39U	0.41
U9G A14G C18U G29U	0.02
C8U G30A U38A	0.07
U9A G27C U28C G29U C46A	0.02
U9A C10U C15U	0.07
U9C G21U G27C G44U C46A	0.03
U9G A11C C23U G29U	0
U9A C31U U32G	0.16
U9A A12C G27A C42G C46U	0
U9G C10G A16U A25G A26U	0
U9A A24U G33C G36A	0.01
U9G A16U G22A G27C G29U C37A C45G	0.15
U9A A12G A39U	0.03

Variant	self-cleavage
U9G C10G A11G G17A U32A G33A C45G	0.01
U9A C31U G35C G36U C37A G40C	0.06
C8U U9G A11U G27A U28G A41C	0.01
U9A A11C A14C	0.04
U9G A11U C37A	0.03
U9A U20A C37A	0.09
U9A C10G A14G	0.03
U9A A16U C31A	0.03
U9A U32A G35A C37A G40U	0.18
U9C U38C G40U	0.01
U9A C13A G17C G36C	0.03
U9A A25C G44C	0.03
U9A A24C G27U G36C	0.03
U9C C18U U20A G27C	0.01
U9C G17A C18A G29C C37G	0
U9G A24G U32C G35U U43A	0.06
U9A C37A C45G	0.11
U9G A14C G19C G33U	0.03
C8U G29U G40C C42U	0.05
C8U U32A G36A U38A	0.06
U9A A14C G21C	0.02

Variant	self-cleavage
U9A C10G C15G C23G U34A G35A C42G	0.01
U9A A12U G35U A41G U43C G44C	0
U9A G21U U32A C42A	0.03
U9G A11G G17U G21C G29U G30U C46A	0.01
U9C C15G C18U G36A	0.03
U9A C10A C18A C23U G27U	0.02
U9C C42G G44U	0
U9A G19A G30C	0.06
U9G A14C G21U	0.03
U9G C13A A24U G30U	0.03
C8U G27U G33A	0.35
U9C C15A A26C G30U G36A	0.01
C8U U20C G33U	0.08
U9C A14G G17U C18A U20C G22U	0.01
U9C A12G G40C	0.01
U9A A16G A26U	0.16
U9A U34C G44A	0.04
U9C A11U A12C U28A C42G	0.01
U9C C10U G27C U38A	0.01
U9C G21A A26U C45A	0.03
U9A C10A A25G C31G G33A G36U A39U G44U	0.02

Variant	self-cleavage
U9G C13A G17A C23U	0.08
U9A C15U G30U A41U	0.05
U9G A12C U43A	0
U9G A24C G30A	0.03
U9C G21C A41C	0.03
U9A G21C G30A	0.1
C8U U34G U43C	0.16
U9A A24C A39U	0.33
C8U U9C C10A G17U A26C	0
U9A A12G A24U	0.03
U9G C10U C15U G33A A41C	0.05
U9A C10G C37G	0.02
U9A G17A G21U	0.08
U9A C15G U20C G35C	0.04
C8U U28G G35A U43C	0.93
U9A G19C C23A U32C U38A	0.01
U9C A25C U32C G36C C42U U43A	0.01
U9C C15U A39G A41U	0.03
U9A C10G G19U G30U G44C	0.01
C8U U9G G33U	0.04

— the RNAGym collection of RNA variant scans (doi:10.7554/elife.90254)
